# ± gives the standard deviation of the averaged measurements. Laboratory Escherichia coli strains with one amino-acid change in an essential protein, pooled on minimal glucose agar with carbenicillin or gentamicin at twice the control MIC (plus kanamycin and chloramphenicol for the plasmids), 48 h. Fold change of barcode share against drug-free plates; higher = less susceptible. Active = above 20 in both replicates (the paper's putatively resistant). '<' = one read or none on drug, '>' = one read or none on a drug-free plate. Shares are relative, so most strains fall below 1 when a few take over. Listed are strains with at least 15 reads on both drug-free plates, and hits; most hits rest on fewer reference reads. Replicate rank correlation about 0.5. Edits are read from barcodes.
# B1: ftsL; numbered along this chain (parent)
# chain: MISRVTEALSKVKGSMGSHERHALPGVIGDDLLRFGKLPLCLFICIILTAVTVVTTAHHTRLLTAQREQLVLERDALDIEWRNLILEENALGDHSRVERIATEKLQMQHVDPSQENIVVQK
# B2: bioC; numbered along this chain (parent)
# chain: MATVNKQAIAAAFGRAAAHYEQHADLQRQSADALLAMLPQRKYTHVLDAGCGPGWMSRHWRERHAQVTALDLSPPMLVQARQKDAADHYLAGDIESLPLATATFDLAWSNLAVQWCGNLSTALRELYRVVRPKGVVAFTTLVQGSLPELHQAWQAVDERPHANRFLPPDEIEQSLNGVHYQHHIQPITLWFDDALSAMRSLKGIGATHLHEGRDPRILTRSQLQRLQLAWPQQQGRYPLTYHLFLGVIARE
# Variants of: B1
# Assay: barcode share on antibiotic plates over drug-free plates; higher = less susceptible
# Conditions: with Escherichia coli (laboratory strain); antibiotic: carbenicillin; 2× MIC (3.1 µg/mL)
# Experimental: (§1)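 A pool of E. coli strains, each edited to carry one amino-acid change in an essential protein, was grown for 48 h on minimal glucose agar with or without antibiotic; strain barcodes were sequenced; mean of two replicates.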
row,Variant,fold change of barcode share
1,L42A,0.184 ± 0.065
2,L42D,0.174 ± 0.037
3,L42P,0.529 ± 0.26
4,L42Q,0.176 ± 0.019
5,L42W,0.457 ± 0.27
6,F43A,0.309 ± 0.0034
7,F43D,0.273 ± 0.11
8,F43P,0.136 ± 0.035
9,F43Q,0.324 ± 0.11
10,F43W,0.216 ± 0.074
11,I44A,0.361 ± 0.007
12,I44P,0.314 ± 0.096
13,I44Q,0.325 ± 0.079
14,I44W,0.255 ± 0.0036
15,I46A,0.266 ± 0.07
16,I46D,0.196 ± 0.13
17,I46P,0.292 ± 0.04

row,Variant,fold change of barcode share
1,I46Q,0.289 ± 0.013
2,I46W,0.2832 ± 0.002
3,I47A,0.443 ± 0.1
4,I47D,0.426 ± 0.2
5,I47P,0.278 ± 0.083
6,I47Q,0.294 ± 0.019
7,I47W,0.355 ± 0.013
8,L48A,0.316 ± 0.047
9,L48D,0.34 ± 0.051
10,L48P,0.307 ± 0.17
11,L48Q,0.184 ± 0.062
12,L48W,0.419 ± 0.14
13,V51A,0.204 ± 0.1
14,V51D,0.164 ± 0.034
15,V51P,0.385 ± 0.32
16,V51Q,0.337 ± 0.02
17,V51W,0.277 ± 0.023

# Same assay, conditions: with Escherichia coli (laboratory strain); antibiotic: gentamicin; 2× MIC (MIC 0.45 µg/mL)
row,Variant,fold change of barcode share
1,L42A,< 0.00956
2,L42D,< 0.0101
3,L42P,< 0.0118
4,L42Q,< 0.00778
5,L42W,< 0.00607
6,F43A,< 0.00645
7,F43D,< 0.00472
8,F43P,< 0.00822
9,F43Q,0.0282 ± 0.024
10,F43W,0.021 ± 0.02
11,I44A,0.0155 ± 0.0086
12,I44P,< 0.00586
13,I44Q,< 0.00654
14,I44W,0.294 ± 0.41
15,I46A,< 0.00208
16,I46D,0.00636 ± 0.0027
17,I46P,0.00378 ± 0.0018

row,Variant,fold change of barcode share
1,I46Q,< 0.003
2,I46W,0.0142 ± 0.015
3,I47A,0.00959 ± 0.011
4,I47D,< 0.00755
5,I47P,0.00537 ± 0.0035
6,I47Q,0.00586 ± 0.0033
7,I47W,0.0121 ± 0.012
8,L48A,< 0.00301
9,L48D,< 0.00474
10,L48P,0.00752 ± 0.0027
11,L48Q,0.0128 ± 0.0041
12,L48W,< 0.00401
13,V51A,< 0.00839
14,V51D,0.00652 ± 0.0043
15,V51P,< 0.00481
16,V51Q,< 0.00965
17,V51W,< 0.00552

# Variants of: B2
# Assay: as above
# Conditions: with Escherichia coli (laboratory strain); antibiotic: carbenicillin; 2× MIC (3.1 µg/mL)
# Experimental: as §1
row,Variant,fold change of barcode share
1,L35A,0.346 ± 0.084
2,L35D,0.4904 ± 0.0018
3,L35P,0.518 ± 0.0022
4,L35Q,0.469 ± 0.0077
5,L35W,0.551 ± 0.09
6,L126A,0.452 ± 0.011
7,L126D,0.5811 ± 0.0013
8,L126P,0.591 ± 0.063
9,L126Q,0.535 ± 0.015
10,L126W,0.423 ± 0.025
11,V136D,0.9968 ± 0.0092
12,V136P,0.617 ± 0.23
13,V136Q,0.461 ± 0.02
14,V136W,0.664 ± 0.34
15,F138D,0.751 ± 0.088
16,L149D,0.758 ± 0.34
17,L149Q,0.622 ± 0.031
18,L149W,0.79176 ± 0.00067
19,W190A,0.441 ± 0.11
20,W190P,0.265 ± 0.062
21,W190Q,0.478 ± 0.26

# Same assay, conditions: with Escherichia coli (laboratory strain); antibiotic: gentamicin; 2× MIC (MIC 0.45 µg/mL)
row,Variant,fold change of barcode share
1,L35A,0.00548 ± 0.0051
2,L35D,0.00911 ± 0.0046
3,L35P,0.0097 ± 0.0085
4,L35Q,0.00613 ± 0.0043
5,L35W,0.00809 ± 0.0081
6,L126A,0.00939 ± 0.0024
7,L126D,0.0148 ± 0.0067
8,L126P,0.017 ± 0.01
9,L126Q,0.00498 ± 0.00032
10,L126W,0.00913 ± 0.0023
11,V136D,< 0.015
12,V136P,< 0.0157
13,V136Q,< 0.0133
14,F138D,0.0186 ± 0.0029
15,L149D,0.0155 ± 0.016
16,L149Q,0.00502 ± 0.0017
17,L149W,0.0163 ± 0.0072
18,W190A,0.00887 ± 0.0058
19,W190P,< 0.00464
20,W190Q,< 0.00577

# Source: the supplement of paper PMC11876631
